According to article PMC6919601, “Identification of Plasmodium dipeptidyl aminopeptidase allosteric inhibitors by high throughput screening” (PLoS ONE, 2019):
Screen size: about 110,000 compounds; about 230 (0.21%) showed an effect of 50% or more. The list shows a part of the results.

target: DPAP1 (Plasmodium falciparum, UniProt Q8IIJ9); assay: primary screen, percent inhibition; read by cleavage of a fluorogenic dipeptide substrate; higher = more effect of the substance; set-up: species or system P. falciparum D10 trophozoite lysates; single well
Sequence (Q8IIJ9 whole entry, looked up): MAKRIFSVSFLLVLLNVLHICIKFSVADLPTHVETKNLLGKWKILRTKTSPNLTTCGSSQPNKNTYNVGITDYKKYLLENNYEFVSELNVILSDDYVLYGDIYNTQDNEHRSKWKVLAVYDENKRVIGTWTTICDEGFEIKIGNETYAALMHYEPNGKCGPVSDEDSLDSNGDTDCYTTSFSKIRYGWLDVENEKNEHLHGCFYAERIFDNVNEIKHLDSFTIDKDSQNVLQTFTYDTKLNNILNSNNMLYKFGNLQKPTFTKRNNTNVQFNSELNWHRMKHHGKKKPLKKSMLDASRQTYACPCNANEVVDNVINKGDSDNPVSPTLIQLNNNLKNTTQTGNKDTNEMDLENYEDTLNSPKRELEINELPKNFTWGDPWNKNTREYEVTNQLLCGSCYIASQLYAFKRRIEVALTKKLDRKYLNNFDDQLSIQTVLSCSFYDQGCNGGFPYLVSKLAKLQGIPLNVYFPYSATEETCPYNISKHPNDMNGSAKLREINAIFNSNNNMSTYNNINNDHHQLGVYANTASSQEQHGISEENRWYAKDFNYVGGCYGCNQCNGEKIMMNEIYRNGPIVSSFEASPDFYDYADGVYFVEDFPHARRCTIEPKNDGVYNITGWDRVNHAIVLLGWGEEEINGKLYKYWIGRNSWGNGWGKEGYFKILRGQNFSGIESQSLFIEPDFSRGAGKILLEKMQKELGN
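Also: 30 min substrate incubation versus DMSO and 10 µM JCP410 controls.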

SMILES | % Inhibition @ 10 uM
CCOC(=O)c1sc(NC(=O)c2cncc(Br)c2)nc1C | 3.66%
O=C(O)c1nccnc1C(=O)Nc1ccc(Br)cn1 | 0.66%
CCC(O)c1ccc(OCc2ccc(C(=O)OC)o2)c(OC)c1 (centres unmarked) | 0.413%
OC1(c2ccc(Cl)cc2)CCN(Cc2cccc(Cl)c2Cl)CC1 | -3.5%
CC(C)(CO)NC(=O)c1ccc(-c2ccccc2)cc1 | 0.843%
Cc1ccc(C(=O)N[C@@H](CC2CCCCC2)C(=O)NCC#N)cc1 | -5.21%
CCOC(=O)c1c(C)n(-c2ccc(Br)cc2)c2ccc(OC)cc12 | -0.467%
CCOC(=O)c1[nH]c(C)c(C(=O)NC2CCCC(C)C2C)c1C (centres unmarked) | -4.68%
Cc1cccn2c(=O)c(/C=C(\C#N)c3nc4ccccc4[nH]3)c(Oc3ccccc3)nc12 | -1.43%
Cc1ccc2c(CC(=O)Nc3nc(C)c(C(=O)OCC(C)C)s3)coc2c1C | -2.4%
C=CCc1cccc2cc(C(=O)NCc3ccco3)c(=O)oc12 | -4.77%
CCCC(=O)N1CCN(Cc2ccccc2)CC1 | -4.59%
CN(C)c1nc2ccc(OCCN3CCOCC3)cc2s1 | 0.266%
CC(C)(CNC(=O)Cc1ccccc1)CNC(=O)Cc1ccccc1 | 0.389%
COc1cc(C2C(C#N)=C(N)OC3=C2C(=O)CC(C)(C)C3)cc(OC)c1OC (centres unmarked) | 2.38%
COc1ccc(S(=O)(=O)NCc2ccc(C(=O)N(C)Cc3ccco3)cc2)cc1 | -5.22%
CCCCCO/C(O)=C1/C(C)=Nc2ncnn2C1c1cc(Br)ccc1OC (centres unmarked) | -3.85%
COc1cccc(CN2CCN(Cc3cc(OC)ccc3OC)CC2)c1 | 3.93%
COC(=O)c1ccc(CSc2nc3ccncc3n2Cc2ccc(C)cc2)cc1 | -3.34%
Cc1nc2sccn2c(=O)c1S(=O)(=O)NCc1ccc2c(c1)OCO2 | 4.95%
OC1(c2ccc(OC(F)F)cc2)C[N+](c2ccccc2)=C2CCCCCN21 (centres unmarked) | -5.08%
CCOC(=O)N1CCN(C(=O)Nc2sc3nc4n(c(=O)c3c2C)CCC(C)CC4)CC1 (centres unmarked) | -1.7%

SMILES | % Inhibition @ 10 uM
CC1(C)Cc2cc3c(cc2C(SCc2ccccc2)=N1)OCCO3 | -0.161%
Cc1ccc(-c2nc3ccccc3c(C(=O)O)c2C)s1 | 2.25%
COc1ccc(S(=O)(=O)Cc2ccc(C(=O)N3CCN(c4ncccn4)CC3)o2)cc1 | -0.971%
CC(=O)Nc1cccc(C(=O)Nc2ccccc2Cl)c1 | -2%
CN1CCCN(Cc2cc(F)ccc2F)CC1 | -2.54%
CCc1c(CN2CCc3ccccc3C2)csc1C | -3.61%
Cn1c(-c2ccc3c(c2)OCO3)cnc1NCc1cc(Br)ccc1F | -1.11%
COC(=O)c1c(NC(=O)c2ccc(Br)o2)sc2c1CCC(C)C2 (centres unmarked) | -4.86%
CCOc1ccc(C(=O)Nc2nc(-c3cc4ccccc4oc3=O)cs2)cc1 | 1.39%
COc1ccc(C2C(C#N)=C(N)N(c3ccc(OC)cc3)C3=C2C(=O)CCC3)cc1 (centres unmarked) | 4.01%
CC1(C)CC2(CC3(C1)Nc1ccccc1S3)Nc1ccccc1S2 (centres unmarked) | 6.02%
COc1cccc(C2C(C#N)=C(N)Oc3nc(SC)nc(N)c32)c1 (centres unmarked) | -3.34%
CC(Cc1ccc(OCCN2CCCCC2)cc1)N(C)C (centres unmarked) | -3.65%
COC(=O)c1oc2ccc(OC)cc2c1NC(=O)c1ccc(C(F)(F)F)cc1 | -6.84%
O=C(NCc1ccccc1Cl)C(Cc1ccccc1)NS(=O)(=O)c1cccc2nsnc12 (centres unmarked) | 2%
COc1cccc(C2(O)CC(C(F)(F)F)=NN2C(=O)COc2ccccc2)c1 (centres unmarked) | -2.66%
COc1cc(C(=O)NCc2cccc3ccccc23)cc(OC)c1OC | 0.907%
CCCN1CCC(NCC2CCCO2)CC1 (centres unmarked) | -4.01%
CC(C)CC(NC(=O)c1ccc(-c2csc(-c3cccnc3)n2)cc1)C(=O)NCC#N (centres unmarked) | -2.35%
COc1ccc(NC(=O)CN(c2cc(C)ccc2OC)S(=O)(=O)c2ccc(C)cc2)cc1 | -4.13%
COc1ccc(-c2nnc3sc(NC(=O)COc4ccccc4C)nn23)cc1OC | -0.959%
COc1cc(C(=O)NCCc2nc3ccccc3n2C)cc(OC)c1OC | 3.49%

SMILES | % Inhibition @ 10 uM
FC(F)(F)c1ccc(NC2CCCC2)nc1 | -6.7%
COc1ccccc1CNC(=O)Nc1noc2c1COc1ccccc1-2 | -0.539%
Cc1ccc(C)c(NC(=O)CCCC(=O)O)c1 | -0.902%
O=C(c1cnn2c(C(F)(F)F)cc(-c3ccccc3)nc12)N1CCOCC1 | 14.4%
Cc1nnc(Sc2nc3c(c(=O)[nH]c(=O)n3C)n2Cc2ccccc2Cl)s1 | -2.71%
CC1CCN(c2nc3ccc(C(=O)N4CCC5(CC4)OCCO5)cc3s2)CC1 | -2.37%
N#CC1=C(SCc2ccccc2)NC(=O)C(C#N)C12CCCC2 (centres unmarked) | -8.03%
Cc1ccc(CNc2nc3ccccc3n3nnnc23)cc1 | -1.59%
Cc1ccc(NC(=O)C(c2ccccc2)c2ccccc2)c([N+](=O)[O-])c1 | 3.03%
c1ccc(CCc2nn3c(COc4ccccc4)nnc3s2)cc1 | 4.96%
CC(CCc1ccccc1)NC(=O)Cn1ncc2c3ccccc3nc-2c1O (centres unmarked) | 4.61%
CCCSCCCNC(=O)c1ccc2c(c1)sc1nc(-c3ccc(F)cc3)cn12 | 1.92%
COC(=O)/C(C#N)=C\c1cccc2ccccc12 | -0.597%
OCC(O)CN(c1ccccc1)c1ccccc1 (centres unmarked) | 1.44%
CCC(C)(O)C#CCN1CCCCC1 (centres unmarked) | 2.13%
CS(=O)(=O)CCC(C(=O)n1nnc2ccccc21)N1C(=O)c2ccccc2C1=O (centres unmarked) | 2.95%
Cc1ccc(C2SCC(=O)Nc3c2c(C)nn3-c2ccccc2)cc1 (centres unmarked) | -4.26%
O=C(Cc1ccccc1)NC1CCCCCC1 | 2.22%
CCOC(=O)c1ccc(-n2c(C)nc(=O)c(-c3ccccc3)c2C)cc1 | -1.05%
Cc1onc(-c2ccccc2Cl)c1C(=O)NC1CCS(=O)(=O)C1 (centres unmarked) | 1.84%
CCOC(=O)N1CCC(NCCc2ccccc2)CC1 | -1.96%
